Reference: PubChem BioAssay (NCI)
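Each compound was tested at five concentrations against cells in 96-well plates for 48 hours. GI50: concentration for 50% inhibition of growth. TGI: total growth inhibition.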

System: NCI-H322M lung
Assay: growth of human tumour cells (NCI), 48 h

N/C(=N\c1nc2ccccc2s1)NC(=O)Nc1ccccc1Br
GI50: 0.256 µM | TGI: > 82.1 µM

c1ccc(CSc2nnc(-c3ccc4nc(-c5ccccc5)[nH]c4c3)o2)cc1
GI50: 17 µM | TGI: 42.1 µM
